Earlier results, collected in publication PMC11006913.
Substitutions are numbered along the chain they refer to. The list shows a part of the results.

Key:
Conditions in all cases: PBM; conditions not shown; double strand, one strand shown; scale: upbm affinity estimate (log intensity, higher = more binding, comparable within an allelic series)
ARX (Homo sapiens) = ARX (Homo sapiens) (UniProt Q96QS3)
ARX L343Q (Homo sapiens) = ARX L343Q (Homo sapiens) (UniProt Q96QS3)
ARX P353L (Homo sapiens) = ARX P353L (Homo sapiens) (UniProt Q96QS3)
ARX P353R (Homo sapiens) = ARX P353R (Homo sapiens) (UniProt Q96QS3)
ARX R332H (Homo sapiens) = ARX R332H (Homo sapiens) (UniProt Q96QS3)
ARX T333N (Homo sapiens) = ARX T333N (Homo sapiens) (UniProt Q96QS3)
[1] = molecular target: T1, HESX1 E149K (Homo sapiens) (UniProt Q9UBX0)
T1 sequence: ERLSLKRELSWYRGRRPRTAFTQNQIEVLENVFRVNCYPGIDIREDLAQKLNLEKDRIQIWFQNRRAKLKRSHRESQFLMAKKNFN

[2] = molecular target: T2, HESX1 N125S (Homo sapiens) (UniProt Q9UBX0)
T2 sequence: T1 sequence with N31S, K55E

[3] = molecular target: T3, HESX1 R160C (Homo sapiens) (UniProt Q9UBX0)
T3 sequence: T1 sequence with K55E, R66C

[4] = molecular target: HOXD13 I297V (Homo sapiens) (UniProt P35453)
[5] = molecular target: HOXD13 N298S (Homo sapiens) (UniProt P35453)
[6] = molecular target: HOXD13 S316C (Homo sapiens) (UniProt P35453)
ISX (Homo sapiens) = ISX (Homo sapiens) (UniProt Q2M1V0)
ISX R83Q (Homo sapiens) = ISX R83Q (Homo sapiens) (UniProt Q2M1V0)
[7] = molecular target: PROP1 R112Q (Homo sapiens) (UniProt O75360)
[8] = molecular target: PROP1 R99Q (Homo sapiens) (UniProt O75360)
[9] = molecular target: HOXD13 I322L (Homo sapiens) (UniProt P35453)
[10] = molecular target: HOXD13 Q325K (Homo sapiens) (UniProt P35453)
[11] = molecular target: HOXD13 Q325R (Homo sapiens) (UniProt P35453)
[12] = molecular target: HOXD13 R306W (Homo sapiens) (UniProt P35453)

Row | Sequence | binding signal (ARX (Homo sapiens)) | binding signal (ARX L343Q (Homo sapiens)) | binding signal (ARX P353L (Homo sapiens)) | binding signal (ARX P353R (Homo sapiens)) | binding signal (ARX R332H (Homo sapiens)) | binding signal (ARX T333N (Homo sapiens)) | binding signal [1] | binding signal [2] | binding signal [3] | binding signal [4] | binding signal [5] | binding signal [6] | binding signal (ISX (Homo sapiens)) | binding signal (ISX R83Q (Homo sapiens)) | binding signal [7] | binding signal [8] | binding signal [9] | binding signal [10] | binding signal [11] | binding signal [12]
1 | GTTAATTA [8-mer GTTAATTA] | 13.3 | 11 | 12.9 | 10.8 | 11.2 | 12.5 | 12.1 | 13.7 | 10.4 | 12.2 | 12.5 | 12.1 | 15.6 | 15.3 | 12.9 | 12.4 | – | – | – | –
2 | CAATTACG [8-mer CAATTACG] | 12.7 | 10.8 | 12.2 | 10.7 | 10.8 | 11.7 | 11.5 | 11.7 | 10.4 | 11.1 | 11.2 | 10.8 | 14.8 | 13.4 | – | 12.2 | 10.7 | – | – | –
3 | GCGCGGCA [8-mer GCGCGGCA] | 10.1 | 10.1 | 10.1 | 10 | 10.1 | 10.2 | – | – | – | – | – | – | – | – | – | – | – | – | – | –
4 | ATAATTGG [8-mer ATAATTGG] | 13 | 11 | 12.7 | 10.8 | 11.2 | 12.2 | 12.1 | 13.4 | 10.4 | – | – | – | 15.3 | 14.6 | 12.9 | 12.6 | – | – | – | –
5 | AATTAGTA [8-mer AATTAGTA] | 12.8 | 10.8 | 12.3 | 10.8 | 11 | 12 | 11.4 | 11.4 | 10.4 | – | – | – | 14.6 | 13.5 | 12.6 | 12.2 | – | – | – | –
6 | CGTAATTA [8-mer CGTAATTA] | 13.1 | 11 | 12.6 | 10.9 | 11.1 | 12.1 | 11.7 | 12.4 | 10.4 | – | – | – | 15.2 | 14 | 12.8 | 12.4 | – | – | – | –
7 | TAATTAAA [8-mer TAATTAAA] | 13.1 | 10.9 | 12.6 | 10.7 | 11.1 | 12.3 | 11.7 | 13.3 | 10.3 | 12.6 | 12.7 | 12.4 | 15.3 | 14.9 | 12.8 | 12.2 | 11.6 | 11.3 | 12.1 | 11.8
8 | CTTCGGCC [8-mer CTTCGGCC] | 10.2 | 10.1 | 10.2 | 10.1 | 10.1 | 10.3 | 9.95 | 7.69 | 10 | – | – | – | – | – | – | – | – | – | – | –
9 | GCAATTAA [8-mer GCAATTAA] | 12.7 | 10.8 | 12.3 | 10.7 | 10.9 | 12 | 11.6 | 12.1 | 10.2 | – | – | – | 15.2 | 14.6 | 12.8 | 12.2 | – | – | – | –
10 | AGCTCGGG [8-mer AGCTCGGG] | 10.3 | 10.2 | 10.3 | 10.1 | 10.2 | 10.2 | – | – | – | – | – | – | – | – | – | – | – | – | – | –
11 | CTTAATTA [8-mer CTTAATTA] | 13.3 | 11 | 12.8 | 10.9 | 11.1 | 12.5 | 12 | 13.7 | 10.4 | – | – | – | 15.6 | 15.4 | 12.9 | 12.3 | – | – | – | –
12 | CAAATTAA [8-mer CAAATTAA] | 12.7 | 10.7 | 12.1 | 10.6 | 10.8 | 11.9 | 11.1 | 11.1 | 10.2 | – | – | – | 14.7 | 13.3 | 12.5 | 11.9 | – | – | – | –
13 | ATAATTAG [8-mer ATAATTAG] | 13.3 | 11 | 12.8 | 10.8 | 11.1 | 12.4 | 11.8 | 13.2 | 10.4 | – | – | – | 15.6 | 14.8 | 12.9 | 12.4 | – | – | – | –
14 | CCCAATTA [8-mer CCCAATTA] | 12.9 | 11 | 12.8 | 10.8 | 11.1 | 12.2 | 12 | 12.8 | 10.5 | – | – | – | 15.3 | 14.5 | 13 | 12.6 | – | – | – | –
15 | TAATTGAA [8-mer TAATTGAA] | 12.8 | 10.7 | 12.4 | 10.6 | 10.9 | 11.9 | 11.6 | 12.4 | 10.1 | – | – | – | 15.1 | 14.1 | 12.7 | 12.1 | – | – | – | –
16 | AATTAAGC [8-mer AATTAAGC] | 12.7 | 10.8 | 12.3 | 10.7 | 10.9 | 11.9 | 11.3 | 11 | 10.2 | – | – | – | 14.8 | 13.6 | 12.7 | 12.2 | – | – | – | –
17 | CAATTAAG [8-mer CAATTAAG] | 12.7 | 10.7 | 12.3 | 10.6 | 10.9 | 12 | 11.7 | 12.4 | 10.2 | – | – | – | 15.3 | 14.6 | 12.7 | 12.2 | – | – | – | –
18 | CTCAATTA [8-mer CTCAATTA] | 12.8 | 10.8 | 12.8 | 10.7 | 11 | 12 | 11.8 | 12.4 | 10.3 | – | – | – | 15.1 | 14 | 12.8 | 12.3 | – | – | – | –
19 | ACTAATTA [8-mer ACTAATTA] | 13.4 | 11.1 | 13.1 | 11 | 11.2 | 12.6 | 12.1 | 13.8 | 10.4 | – | – | – | 15.5 | 15.3 | 12.9 | 12.5 | – | – | – | –
20 | AATTAACG [8-mer AATTAACG] | 12.8 | 10.9 | 12.3 | 10.8 | 11 | 11.9 | 11.4 | 11.1 | 10.3 | – | – | – | 14.7 | 13.6 | 12.7 | 12.2 | – | – | – | –
21 | CTAATTAC [8-mer CTAATTAC] | 13.3 | 10.9 | 12.9 | 10.8 | 11 | 12.3 | 11.8 | 13 | 10.4 | – | – | – | 15.7 | 14.8 | 12.9 | 12.5 | – | – | – | –
22 | ACAATTAT [8-mer ACAATTAT] | 12.4 | 11 | 12 | 10.9 | 11.1 | 11.7 | 11.4 | 11.7 | 10.4 | – | – | – | 14.6 | 13 | 12.6 | 12.1 | – | – | – | –
